Experimental data taken from the RNAGym collection of RNA variant scans (doi:10.7554/elife.90254).
The source gives no read counts; variants with many changes may rest on few reads.

B1: OR4K15 (parent)
chain: GUUAACGGUCAUAGGCCAUGGAAACUAGGAGCACCAUUUCGCUGCCAGUGAAGAAAUGAACAAAGAAAAUCUGGGCCAGGCAGGCAUCAAAAGAAAUAGUCUUGCGCUCAACCAGAAAGUCUGUAAUCAUUUUAAGGGUA

Variants of: B1
Experiment: self-cleavage, relative activity (ratio to wild type); higher = more cleavage; in vitro, sequencing; the parent is a self-cleaving ribozyme

Variant	self-cleavage
A18G A54G A62G U120C	0.89
U19A U39C A51G	2.36
U19A A118G U122G	1.67
A18U A47U A60G A94G U120C	0.23
A18U A52G U130C U139C	0.29
U19A A67G A68G	1.3
A18G A78U A86G A94G	0.28
U19A U57A A96G A114G	0.29
A18U A92G U103C	0.47
U19A U43C A52G A55G	0.35
A18U A116G U120C U133A	0.27
A18G A62G A63G G119A U139C	1.76
A18U A67G A92G	0.27
U19A A55G A94G	0.47
U19A U37C A68G A116G U130C	0.26
A18G U26C A52U U120C	1.06
C17U U37C U103C A129G	0.25
A18G A33G A56G A67G U100C G119C	1.49
A18G A24G A95G	0.87
A18G A91G A98U U100A A110G	0.13
U19A A47U A62C	0.79
A18U A68G A98U	1.29
A18G A27G A54G U103C U124C A126U U132C	1.2
A18U A59G A125G U127C	0.44

Variant	self-cleavage
A18U C45A A66G	0.73
A18G A30U U87A A98U A126G	1.01
A18U A23G A56G A59G C128A	1.12
A18G A95G A114G	1.76
A18G A24G A36G A63G	0.79
A18G A27G A68G A82G A110G	0
A18G A63G A64G U108C A129U U132C G138U	0.01
A18G A68G U103A	0.66
A18G U39C G41A A90G	0.48
A18U A54G A60G U72A A78G C109U	0.13
A18G A60G U100C	1.88
A18U A22U U26A A86G U103C U122C	0.76
C17U A82G U102C A126G	0.82
A18G C88U U127C	0.88
A18U A23G A60G	0.89
A18G A94G A114G	0.27
A18C A51G A54U A86G U139C	1.44
C17U A62G A89G	1.23
A18G A52G A59G A67G G138A	1.06
A18C A24C A54U A60G U103A	0.71
A18G A63G A67G	0.81
C17U U26C A55U A62G A90G A92U	1.07
A18C U70C A110G U133G	0.07
U19C A22G A66U	2.37

Variant	self-cleavage
A18G G31C A55G U97C A118U	0.56
A18U A30G U120C A126G	0.77
A18U A68G A96G U103C	0.24
A18U U37C A140G	1.25
A18G U108A A110G	0.02
A18G A59G G75A	0.15
A18U A30U A69G U72C A90G	0.15
C17U A55G C85U U103C	0.22
A18C A60C U124C	0.3
A18G A54G A134G	1.59
U19A U49A A54G G84A	1.79
A18U A68G U130C A140G	0.21
U19A A36G U87C	1.45
A18G A22G U43A U102C	0.91
A18U U43A A92G A114U A116G A129G	0
U19A A52C U72C A125G A140U	0.09
A18C A59G G84A U108A U120C	0.04
A18U A52G A78G U97A A117G	0.32
A18U U57C A90G A95G A135G	1.31
U19C A22U U43C U108C	0.07
A18U G75C U87C	0.23
A18G U37C A86G A134U	1.5
A18G U38C A117G U131C	2.15
A18G A52G A59G U102C U124C	0.58

Variant	self-cleavage
A18G A52G A69U U72C A117G A135U	0.51
U19A U38C A90G	1.49
U19C A22U A64G	0.86
A18G A62U A111U	0.27
A18U A62G U97C	1.89
U19A A59G A86G A95G	1.12
A18G U70C A125U A129G	0.27
A18U A30C A52G	0.5
A18G U103G A114U	0.01
A18C U87C A110G	0.04
U19A A22G A69G A116G	0.83
A18U U38C A59G	1.38
A18G U122C A129G	1.73
A18C G74U U102C A114U	0
A18G U19A G41U A78G U100C U120A	0.62
A18U U49A A114U	0.03
A18G A91U A116G A117G	0.11
A18G A24G A95G G104A U120C	0.03
A18U A22G A24G A78U U103C	0.12
A18G U57C A94G	1.84
A18U A60G A82G G137A	0.12
A18C A62G A86G	1.18
A18G A68G U122C	0.41
A18G A89G G136A	1.56

Variant	self-cleavage
U19A A111U U122C	0
A18C U57C C121U A140G	2.23
A18G A98G A118G	0.3
A18G A54G U108A	0.03
U19C A22G C45U G50U A55G U108C	0.05
A18C U37C U87C A91G	0.21
U19A A67G A126G	0.19
A18G U49C A64G U108C	0.02
A18U A30U A68G A95G G106A	0.01
A18U U38C G58C A69G A91G	0.61
U19A A59U A89G A116U	0.17
A18U U43C A68C	1.9
U19C A23G A30G A52C A68G	0.87
A18G A95G U120C	1.13
U19A A33G A95G U133C	1.34
C17U A51G A86G U87C A95G A118G	0.11
A18U U37C U72C	0.25
U19A A68G U97C A110G	0.09
A18G C34U A55G A118G	0.97
A18G A30G U87C	0.9
C17U A51G A98G U131C	0.19
A18G C35U A68G A82G	0.31
A18U A63G A64G G84U A89G A90G	0.44
A18G A33G A59G A82U C88U	0.1

Variant	self-cleavage
A18U A56G U120C	0.85
C17U A22G U26C	0.76
A18G A64G A140G	1.23
A18G U57C A59G A111G	0.02
A18U A62G A90G	1.69
A18G U108C A135G	0
A18U U43C A82U A116U U122C U139C	0.04
A18G A23U A91G A117G	1.84
A18U A60G A117G	1.55
C17U U87C U122A U131C	0.94
A18U A22G A69G U72G C101U U130C	0.08
A18G A82U U108C	0.03
U19A A24C A118C	1.55
A18U U26C A82G A92G	0.4
A18G A62G A67G A69G U72C U100A	0.12
A18U A33G A52G A118G	0.35
A18G U57A U130A	0.34
A18G U37C A64G A69G	0.93
A18G G74U A82U	0.15
U19A U39C A86G U122C	0.63
A18U A66G U130C	0.78
C17U A51U A140U	1.08
A18G U39C A78U A86G U102A	0.17
A18U A52G A64G A129C A140U	0.87

Variant	self-cleavage
A18G A27G A67G U70C A78U A86G	0.2
A18U A64G A89G	1.18
A18G U19A A36G	1.07
U19A A62G A86G	1.31
A18G A30G U57C U130C	0.82
A18U A66U A92G	1.42
C17U A36U A89U	1.29
A18G A66G U131C	1.38
A18G C71U A78G U97A	0.45
C17U U19C A116G A129C G138U	0.06
U19A A96G U103G U124A	0.01
A18G A23G U70C	1.35
A18G A55G U102C U122C	1.43
U19A A23U A82G U87C A111G	0
U19A A59U U108C	0.03
A18C U39A A94U U108A U130C	0
A18U C32U A56G	1.29
U19A A66U A92G	1.45
A18G U39G A52G A63U	0.61
A18U U37C A51G U57C A67G C105G A118G	0
C17U U37G U87C	0.24
A18G A62G A110G	0.09
A18G A24C A82U A135U	0.2
